According to a collection of fitness landscapes (doi:10.1126/science.1257360):
Some of the results follow.

B1: PhoQ; a variant is named by its letters at X, in order, P23837 (parent)
chain: MKKLLRLFFPLSLRVRFLLATAAVVLVLSLAYGMVALIGYSVSFDKTTFRLLRGESNLFYTLAKWENNKLHVELPENIDKQSPTMTLIYDENGQLLWAQRDVPWLMKMIQPDWLKSNGFHEIEADVNDTSLLLSGDHSIQQQLQEVREDDDDAEMTHSVAVNVYPATSRMPKLTIVVVDTIPVELKSSYMVWSWFIYVLSANLLLVIPLLWVAAWWSLRPIEALAKEVRELEEHNRELLNPATTRELTSLVRNLNRLLKSERERYDKYRTTLTDLTHSLKTPLXXLQXXLRSLRSEKMSVSDAEPVMLEQISRISQQIGYYLHRASMRGGTLLSRELHPVAPLLDNLTSALNKVYQRKGVNISLDISPEISFVGEQNDFVEVMGNVLDNACKYCLEFVEISARQTDEHLYIVVEDDGPGIPLSKREVIFDRGQRVDTLRPGQGVGLAVAREITEQYEGKIVAGESMLGGARMEVIFGRQHSAPKDE

Variants of: B1
Assay: enrichment ratio after two sorts for PhoP signalling (ratio (wild type AVST 3.29)); higher = more functional
Conditions: with PhoP (E. coli)

Variant | enrichment ratio
TCPV | ≤ 0.25
AEYN | ≤ 0.25
WTGD | ≤ 0.25
LTDY | ≤ 0.25
WILQ | ≤ 0.25
RYNT | ≤ 0.25
TKCW | ≤ 0.25
RWID | ≤ 0.25
DGKL | ≤ 0.25
LMFY | ≤ 0.25
IWEM | ≤ 0.25
PPPL | ≤ 0.25
TLKD | ≤ 0.25
YVRR | ≤ 0.25
YIHW | ≤ 0.25
RNWK | ≤ 0.25
SNGG | 7.77
IFGM | ≤ 0.25
YVFP | ≤ 0.25
INRD | ≤ 0.25
NLLF | ≤ 0.25
DTPV | ≤ 0.25
QFVS | ≤ 0.25
RQNQ | ≤ 0.25

Variant | enrichment ratio
KQLT | ≤ 0.25
HMSC | ≤ 0.25
DFKA | ≤ 0.25
AQDF | ≤ 0.25
ETPY | ≤ 0.25
PYAF | ≤ 0.25
PTYY | ≤ 0.25
PNCM | ≤ 0.25
ITNR | ≤ 0.25
TRPA | ≤ 0.25
VNNS | ≤ 0.25
KNHG | ≤ 0.25
VLIQ | ≤ 0.25
KAPI | ≤ 0.25
TYHV | ≤ 0.25
MNNC | ≤ 0.25
TIRF | 0.704
NFGQ | ≤ 0.25
GDLH | ≤ 0.25
RWVC | ≤ 0.25
VMGS | 1.16
HASP | ≤ 0.25
WVAK | ≤ 0.25
EYLC | ≤ 0.25

Variant | enrichment ratio
NDNP | ≤ 0.25
SPIV | ≤ 0.25
VCHK | ≤ 0.25
VKCM | ≤ 0.25
KEHN | ≤ 0.25
QSRW | ≤ 0.25
ANFH | ≤ 0.25
NQSW | ≤ 0.25
PHWQ | ≤ 0.25
YMYA | ≤ 0.25
GFPL | ≤ 0.25
WSYR | ≤ 0.25
LDTN | ≤ 0.25
ILNR | ≤ 0.25
IAYI | ≤ 0.25
SLQT | ≤ 0.25
VHFD | ≤ 0.25
VVKG | ≤ 0.25
FTQT | ≤ 0.25
WEEF | ≤ 0.25
IPFW | ≤ 0.25
WGFP | ≤ 0.25
VEHY | ≤ 0.25
AGLR | 3.46

Variant | enrichment ratio
CLIY | ≤ 0.25
ITKE | ≤ 0.25
PRSG | ≤ 0.25
QIMW | ≤ 0.25
NSVY | ≤ 0.25
SDVM | 7.78
VCRV | ≤ 0.25
NWKH | ≤ 0.25
DGGL | ≤ 0.25
YPCY | ≤ 0.25
EAWM | ≤ 0.25
QCDT | ≤ 0.25
NVGN | ≤ 0.25
KDIF | ≤ 0.25
TNVI | ≤ 0.25
FSEV | ≤ 0.25
QCNG | ≤ 0.25
HWWP | ≤ 0.25
DRDK | ≤ 0.25
HKVL | ≤ 0.25
EAMK | ≤ 0.25
LQCV | ≤ 0.25
TKPG | ≤ 0.25
RFVD | ≤ 0.25

Variant | enrichment ratio
ISQM | ≤ 0.25
HEVH | ≤ 0.25
VRYL | ≤ 0.25
RILS | ≤ 0.25
RPNQ | ≤ 0.25
ITYA | ≤ 0.25
DQVF | ≤ 0.25
TVGN | 3.64
RFRP | ≤ 0.25
IWDS | ≤ 0.25
PCWV | ≤ 0.25
DMCC | ≤ 0.25
ARDF | ≤ 0.25
EAIV | ≤ 0.25
NGTC | ≤ 0.25
FPCY | ≤ 0.25
PMMW | ≤ 0.25
VQDN | ≤ 0.25
FHKG | ≤ 0.25
YHDM | ≤ 0.25
WNWV | ≤ 0.25
IKSG | ≤ 0.25
PCTA | ≤ 0.25
EYMA | ≤ 0.25

Variant | enrichment ratio
EFCL | ≤ 0.25
KDPF | ≤ 0.25
RQAS | ≤ 0.25
LYCQ | ≤ 0.25
MQPP | ≤ 0.25
WRYC | ≤ 0.25
YSTA | ≤ 0.25
WKWF | ≤ 0.25
VGYP | ≤ 0.25
FHVA | ≤ 0.25
AAPA | ≤ 0.25
VPFG | ≤ 0.25
MRLV | ≤ 0.25
SYSC | ≤ 0.25
DYKD | ≤ 0.25
NITS | 4.94
LSQT | ≤ 0.25
EGYG | ≤ 0.25
GAPE | ≤ 0.25
PTSS | ≤ 0.25
IKHM | ≤ 0.25
RYRN | ≤ 0.25
PGEV | ≤ 0.25
PTFS | ≤ 0.25

Variant | enrichment ratio
RMKY | ≤ 0.25
ELPK | ≤ 0.25
WVFL | ≤ 0.25
ATVD | ≤ 0.25
WKPW | ≤ 0.25
MKPR | ≤ 0.25
SHLQ | 7.83
MHLE | ≤ 0.25
EPRW | ≤ 0.25
FMHT | ≤ 0.25
YFMH | ≤ 0.25
RNGH | ≤ 0.25
ASDW | ≤ 0.25
PIHR | ≤ 0.25
AFFV | ≤ 0.25
YFGM | ≤ 0.25
GGFR | ≤ 0.25
RQIP | ≤ 0.25
GGCE | ≤ 0.25
HPDM | ≤ 0.25
ASLW | 1.6
IAGS | ≤ 0.25
TKLI | 13
KRRF | ≤ 0.25

Variant | enrichment ratio
NLLP | ≤ 0.25
WTVW | ≤ 0.25
PDKN | ≤ 0.25
MDYH | ≤ 0.25
NNQA | ≤ 0.25
YGPC | ≤ 0.25
VNNQ | ≤ 0.25
LWMH | ≤ 0.25
AWCY | ≤ 0.25
KRMM | ≤ 0.25
VVYE | ≤ 0.25
NSFH | ≤ 0.25
ECDM | ≤ 0.25
YDFF | ≤ 0.25
EDCC | ≤ 0.25
MYIE | ≤ 0.25
SREL | ≤ 0.25
RYTF | ≤ 0.25
KMEC | ≤ 0.25
QYHF | ≤ 0.25
QHCA | ≤ 0.25
HEMP | ≤ 0.25
LELM | 5.99
TYVT | ≤ 0.25

Variant | enrichment ratio
DATV | ≤ 0.25
KYHR | ≤ 0.25
SDCD | ≤ 0.25
VQYW | ≤ 0.25
ESFI | ≤ 0.25
MAVC | ≤ 0.25
RFPE | ≤ 0.25
RMKP | ≤ 0.25
TNQT | 7.38
QHRG | ≤ 0.25
AFCS | ≤ 0.25
MAFY | 5.02
ATCE | 0.272
PTLE | ≤ 0.25
WLVD | ≤ 0.25
TGHL | 7.55
SVII | 0.415
ESPD | ≤ 0.25
EMVV | ≤ 0.25
GRTM | ≤ 0.25
VKCW | ≤ 0.25
DMKR | ≤ 0.25
YNPD | ≤ 0.25
KYRK | ≤ 0.25

Variant | enrichment ratio
PSCN | ≤ 0.25
LQRS | ≤ 0.25
RQFY | 0.976
EHIC | ≤ 0.25
FKCE | ≤ 0.25
ASLV | 18.7
ESMN | ≤ 0.25
YNRV | ≤ 0.25
TPTN | ≤ 0.25
FHSF | ≤ 0.25
DVLT | ≤ 0.25
LEKY | ≤ 0.25
IGLP | ≤ 0.25
VVMH | ≤ 0.25
NVTN | ≤ 0.25
LWPT | ≤ 0.25
SWYC | ≤ 0.25
VYDY | ≤ 0.25
PNYH | ≤ 0.25
FTAN | ≤ 0.25
IYVY | ≤ 0.25
LLHP | ≤ 0.25
YLYD | ≤ 0.25
EHFA | ≤ 0.25

Variant | enrichment ratio
SLRW | ≤ 0.25
LHNI | ≤ 0.25
EHTV | ≤ 0.25
TLFM | ≤ 0.25
TPTF | ≤ 0.25
SQRQ | ≤ 0.25
FERK | ≤ 0.25
FWKG | ≤ 0.25
CKIF | ≤ 0.25
QAMI | ≤ 0.25
HSNI | ≤ 0.25
MDHK | ≤ 0.25
IRYQ | ≤ 0.25
RANV | ≤ 0.25
EPLK | ≤ 0.25
MICV | ≤ 0.25
GKAY | ≤ 0.25
HMTV | ≤ 0.25
SSGK | ≤ 0.25
LNHM | ≤ 0.25
SAHR | ≤ 0.25
FICR | ≤ 0.25
KDYR | ≤ 0.25
SCQA | ≤ 0.25

Variant | enrichment ratio
YQHV | ≤ 0.25
FDGL | ≤ 0.25
EHLP | ≤ 0.25
WVPR | ≤ 0.25
YVCL | 0.626
RVTT | ≤ 0.25
APLS | ≤ 0.25
MLTT | ≤ 0.25
AGCE | 6.71
KHWC | ≤ 0.25
YWHW | ≤ 0.25
DEVV | ≤ 0.25
NTIN | ≤ 0.25
HLFY | ≤ 0.25
LIRN | ≤ 0.25
MQYL | 10.8
WYIY | ≤ 0.25
TSRF | ≤ 0.25
NWCC | ≤ 0.25
LDDP | ≤ 0.25
FKVE | ≤ 0.25
PMID | ≤ 0.25
LRWN | ≤ 0.25
ADRC | ≤ 0.25

Variant | enrichment ratio
WVNF | ≤ 0.25
MPVT | ≤ 0.25
DNFW | ≤ 0.25
KQQP | ≤ 0.25
PAVE | ≤ 0.25
PSDN | ≤ 0.25
IAGL | ≤ 0.25
HLWC | ≤ 0.25
IGIH | ≤ 0.25
YDHD | ≤ 0.25
HQFH | ≤ 0.25
IWFC | ≤ 0.25
FKIK | 7.33
EQHC | ≤ 0.25
DGKH | ≤ 0.25
FGKL | ≤ 0.25
QDWP | ≤ 0.25
VAWK | ≤ 0.25
